# Measurements: the BET-seq Pho4 binding data (Le et al. 2018)
# This is one part of the list. The energies were worked out here from pooled read counts, against the library average; single values are noisy.
# Target: T1, Pho4 (S. cerevisiae) (UniProt P07270)
# T1 sequence: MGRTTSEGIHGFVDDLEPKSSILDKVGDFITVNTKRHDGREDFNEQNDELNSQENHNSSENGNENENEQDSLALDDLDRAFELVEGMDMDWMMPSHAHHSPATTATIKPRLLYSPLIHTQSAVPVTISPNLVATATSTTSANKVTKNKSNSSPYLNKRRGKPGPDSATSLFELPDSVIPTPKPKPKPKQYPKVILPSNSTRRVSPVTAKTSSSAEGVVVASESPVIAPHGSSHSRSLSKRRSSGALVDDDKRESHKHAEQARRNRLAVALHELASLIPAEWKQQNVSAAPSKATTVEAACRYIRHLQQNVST
# Experiment: relative binding free energy (BET-seq); higher = weaker binding
# Details: reference: library average
row,Sequence,relative binding free energy [kcal/mol]
1,GGGGACACGTGGGTCA,0.03
2,AATAGCACGTGCGTGG,-0.1
3,ATTGACACGTGATGAG,0.09
4,TTGGGCACGTGCTGAG,-0.02
5,ATTTACACGTGTGGCA,0.08
6,AGTAACACGTGATGGC,0.14
7,GTAGTCACGTGGCCGG,0.04
8,TAGGCCACGTGCGGGG,-0.19
9,ATTGGCACGTGCGAGG,-0.14
10,TGATTCACGTGAGAAT,0.31
11,TCTTTCACGTGTAGGG,0.26
12,ATCTGCACGTGTTTTG,-0.03
13,TAGTACACGTGCTTGG,-0.03
14,AGCGGCACGTGTCTGG,-0.16
15,TAGATCACGTGGGTCT,0.17
16,ATGTGCACGTGGTAGG,-0.12
17,TACTTCACGTGAATTT,0.58
18,CGTGTCACGTGTTTTG,0.05
19,TCGGTCACGTGAGGGG,0.27
20,ATTGTCACGTGTGTAT,0.11
21,ATAGACACGTGATTTT,0.05
22,GGTAGCACGTGCTTTT,-0.07
23,TAGATCACGTGTTGTG,0.22
24,GCGGGCACGTGTAGAG,-0.04
25,AAGGTCACGTGTATAT,0.04
26,TATTTCACGTGTGATG,0.26

row,Sequence,relative binding free energy [kcal/mol]
1,TCGGTCACGTGTGCGG,0.09
2,GGCGGCACGTGAGTTA,0.16
3,TGTCGCACGTGTCGAG,-0.01
4,GGATTCACGTGAGGTG,0.37
5,GGTACCACGTGGGCGG,-0.2
6,GATGTCACGTGCAGGT,0.06
7,GTAGTCACGTGAAGAT,0.39
8,CTTGTCACGTGTTTCG,0.13
9,GTTGTCACGTGGTGGT,0.14
10,TTAAACACGTGAGTTA,0.18
11,AGTGGCACGTGGGGTG,-0.16
12,TGTTTCACGTGTCGAG,0.11
13,AATAGCACGTGTCGGG,-0.13
14,AACTTCACGTGTGGTA,0.39
15,GGTATCACGTGGCGGC,0.18
16,TGTAACACGTGATCTG,0.1
17,GAAGTCACGTGGGCTG,-0.14
18,GGTTGCACGTGATCGG,0.16
19,ATTTACACGTGTTTCG,-0.05
20,GGTGGCACGTGTTGGG,0.1
21,CGGGTCACGTGTCTGT,0.1
22,GGTGACACGTGATCGT,-0.01
23,GTAGCCACGTGGAGGG,0
24,TAAGTCACGTGAGGTA,0.24
25,TAAGTCACGTGGTAGA,0.14
26,CTTGACACGTGCTGGG,-0.08

row,Sequence,relative binding free energy [kcal/mol]
1,GGAGTCACGTGCTTTG,0.17
2,TGTGGCACGTGGAAGG,-0.04
3,GTCGACACGTGGATGG,0.14
4,TGTGGCACGTGGGCGG,-0.16
5,GTGGCCACGTGTTAAT,0.09
6,AAGGCCACGTGTTTTG,-0.05
7,ATTGACACGTGGTTAT,0.03
8,CGGGTCACGTGATAAT,0.3
9,TCAGTCACGTGACGGT,0.25
10,GATGGCACGTGTTTCG,-0.08
11,CGATTCACGTGAGTGT,0.4
12,TTACTCACGTGGGTAA,0.05
13,TATTTCACGTGAGAGA,0.34
14,CGTATCACGTGAGGGG,0.25
15,TAGGTCACGTGTTACA,0.13
16,GGTGGCACGTGAATGC,0.26
17,TTGTGCACGTGGATTT,0.15
18,CCAATCACGTGGGGGT,0.03
19,TGAATCACGTGGGGCG,0.16
20,TTATACACGTGTATCT,0.05
21,GTAGACACGTGCGGTA,-0.04
22,CATTACACGTGGCGTT,0.19
23,GTATTCACGTGACGGA,0.39
24,GGGATCACGTGGAGTG,0.13
25,GTGTTCACGTGGACCG,0.29
26,AGGCACACGTGGGTGT,-0.09

row,Sequence,relative binding free energy [kcal/mol]
1,TAGGGCACGTGTCTTA,0.04
2,TCTAGCACGTGGATTT,0.01
3,AGTTGCACGTGGTGCA,-0.02
4,CTTATCACGTGTAATG,0.16
5,TTATACACGTGTTATA,0.09
6,TATTCCACGTGGTTTG,-0.06
7,CTTTTCACGTGGGGTG,0.12
8,GCAATCACGTGTAGGT,0.26
9,AAGGCCACGTGGTGTT,-0.17
10,TGTGTCACGTGTGAGC,0.17
11,GTACACACGTGGTGTT,0.04
12,GGTTGCACGTGAGGTT,0.22
13,TCACGCACGTGGGGGA,-0.19
14,TTATTCACGTGTGGAC,0.37
15,AGGTCCACGTGTTGGG,0.07
16,TAATTCACGTGTTATT,0.22
17,TGCAGCACGTGGTTGG,-0.17
18,CGTCTCACGTGATGGG,0.24
19,GTGTACACGTGCTGAG,0.05
20,TTCTTCACGTGTAGGA,0.25
21,ATATGCACGTGAGTTC,0.19
22,AGGAACACGTGTAAGG,0.1
23,GGTTTCACGTGAAGGA,0.5
24,GAATTCACGTGCTTGT,0.24
25,TTGAGCACGTGACTTT,0.04
26,ATTATCACGTGAGTTC,0.27

row,Sequence,relative binding free energy [kcal/mol]
1,AATTTCACGTGGTGGT,0.33
2,TTGTGCACGTGTATGC,0.04
3,ATGTTCACGTGAAAGG,0.42
4,TAGCTCACGTGGTTGG,0.21
5,CTGGGCACGTGATTGC,0.08
6,TTTAACACGTGGTTCA,-0.11
7,TGTTGCACGTGATAAA,0.02
8,CTGTACACGTGCAGGG,0.07
9,GCCGGCACGTGGGTTG,-0.23
10,TTTATCACGTGGAGGT,0.29
11,GGGGTCACGTGATGGC,0.33
12,GTCTTCACGTGGTGTG,0.12
13,TATATCACGTGGCCGG,-0.01
14,TAATTCACGTGCGGAG,0.35
15,GAGGGCACGTGAGGTT,0.13
16,GGCAGCACGTGGGGGT,-0.2
17,CGATTCACGTGTTTGT,0.26
18,GATCACACGTGGGGTT,0.08
19,CCTATCACGTGGGTAT,0.18
20,GGGTGCACGTGTAGCT,-0.05
21,TAATACACGTGGAGGT,0.02
22,CGAGGCACGTGGCATG,-0.16
23,TGTATCACGTGGTACT,0.04
24,TGAATCACGTGGCTTA,0.1
25,TTGAACACGTGCGGTT,0.01
26,GACCGCACGTGGGGTT,-0.06

row,Sequence,relative binding free energy [kcal/mol]
1,AGAGGCACGTGGGAGA,-0.22
2,TTGTGCACGTGTTGAG,0.05
3,ATCGGCACGTGTTTTG,-0.06
4,GGTGACACGTGGACAG,0.13
5,AATTTCACGTGAGGGA,0.35
6,CTGAGCACGTGGGGGG,-0.16
7,GCTTGCACGTGTTTTT,0.08
8,TTGATCACGTGCATTG,0.22
9,TGGCACACGTGGGGCT,-0.13
10,TAAGTCACGTGTTTTA,0
11,GGTTGCACGTGTAAAT,0.17
12,GTGCTCACGTGGTTGA,0.11
13,GGGCGCACGTGGGGAG,-0.02
14,CGACGCACGTGGTTGT,-0.13
15,ATGGGCACGTGTGAAT,0.01
16,TTTAACACGTGAGTTG,0.16
17,TGATACACGTGTAATT,0.03
18,GGTGACACGTGTTGTC,0.05
19,TAGTGCACGTGTGCGG,0.03
20,GGTTACACGTGGACAG,0.13
21,TGGATCACGTGTGAGA,0.33
22,TTGCTCACGTGTTCGG,0.18
23,TTGGTCACGTGCGGCG,0.08
24,GAGTCCACGTGGGGGG,-0.04
25,TTGCACACGTGTGTGA,0.16
26,TTAGTCACGTGATAAT,0.12

row,Sequence,relative binding free energy [kcal/mol]
1,ATGTTCACGTGGGGGT,0.18
2,AATGGCACGTGAGGAT,-0.08
3,AGCTGCACGTGAAGGT,0.25
4,TATTTCACGTGTTATC,0.41
5,TAACGCACGTGGGGTG,-0.41
6,CTGGTCACGTGTATGT,0.14
7,GGGCGCACGTGATATG,0.15
8,AGGCTCACGTGTACGG,0.3
9,TGCGACACGTGGGTGT,-0.1
10,TATTCCACGTGAAGGG,0.24
11,CATCTCACGTGTGGTT,0.4
12,ATGTGCACGTGGATTA,0.09
13,GTGTGCACGTGTGCCA,0.06
14,TAGGGCACGTGGAGGT,-0.13
15,CGGTGCACGTGTAGGG,-0.04
16,ATCGTCACGTGTGGAT,0.37
17,GTTGGCACGTGAGGAA,0.22
18,GGTAGCACGTGGGCCA,-0.14
19,TGCGGCACGTGATGGT,0
20,TGTGTCACGTGTACTT,0.15
21,AGTATCACGTGTGAAG,0.14
22,TTAGTCACGTGTTATT,0.19
23,CGTGGCACGTGAGCGT,0.03
24,GCTTTCACGTGGTTAC,0.49
25,GGATGCACGTGGCGAG,-0.11
26,TTGTGCACGTGCGATT,-0.09

row,Sequence,relative binding free energy [kcal/mol]
1,TGTATCACGTGTTCTG,0.22
2,TATTGCACGTGGATTT,0.15
3,TTACACACGTGTGGTT,0.11
4,TTTGGCACGTGGTGTA,-0.2
5,GCAGACACGTGCGGGG,0.02
6,CTGTACACGTGTGTGG,0.03
7,TTTTACACGTGTTAAT,0.1
8,TGGGGCACGTGGCGCA,-0.27
9,TAGGTCACGTGAAGCT,0.22
10,ATTGGCACGTGGAGGA,-0.11
11,TAGTGCACGTGCTGAG,0.05
12,TTCAGCACGTGTGTGA,0
13,ATTGCCACGTGGCGAG,-0.06
14,TGAGTCACGTGTGACG,0.35
15,ATATGCACGTGCGTAT,-0.03
16,CTGGTCACGTGTTTTT,0.23
17,GCTTGCACGTGAGGGG,0.2
18,AACTACACGTGTGGGG,0.09
19,AGTTTCACGTGGATGT,0.22
20,GAATGCACGTGTTGGC,0.14
21,GTTGGCACGTGAGGCC,0.23
22,CTGATCACGTGATGTG,0.27
23,TGTTGCACGTGCATGG,-0.11
24,ATCGACACGTGCTTGG,0.14
25,TGAGGCACGTGAAGGT,0.1
26,TGTCTCACGTGTTTCG,0.21

row,Sequence,relative binding free energy [kcal/mol]
1,GGGGCCACGTGTGACG,0.1
2,TGAGGCACGTGTGATC,-0.01
3,ATGGTCACGTGTCCTT,0.25
4,GGTCTCACGTGGATGT,0.27
5,GGTATCACGTGTGCGG,0.16
6,AGTCTCACGTGATGGA,0.41
7,ATGGGCACGTGCTATT,-0.07
8,TTGAGCACGTGTCTTA,-0.05
9,GTAAACACGTGATTTA,0.36
10,TATGGCACGTGTGTAG,-0.05
11,ACTTGCACGTGGCGGG,-0.09
12,ATCGGCACGTGGGGGG,-0.18
13,TTGTACACGTGGAGTA,0.14
14,AGAGGCACGTGCTATT,0.02
15,TGCGGCACGTGGGAAA,-0.05
16,ATCGTCACGTGTAGTG,0.02
17,GGAGACACGTGGAAGG,0.17
18,GTAATCACGTGTTAGG,0.19
19,CATTGCACGTGGATTT,-0.07
20,GTGGGCACGTGGTAGT,-0.05
21,CTTAGCACGTGGTGCG,-0.16
22,TTTGTCACGTGAAGTC,0.39
